Test results from US7425576B2, “Compounds as inhibitors of hepatitis C virus NS3 serine protease” (Schering Corporation, priority 2004, dated 2008).

Biological target: Recombinant heterodimeric HCV NS3/NS4A protease (strain 1a) (Hepatitis C virus genotype 1a, UniProt P27958)
Assay: Spectrophotometric assay for HCV protease inhibitory activity (chromogenic ester substrates)
Format: biochemical

| Structure (SMILES) | Ki (Table 3, Ki* range class) | Ki (Table 1, Ki* range class) | further results |
| --- | --- | --- | --- |
| COC[C@@H](NC(=O)N[C@H](C(=O)N1C[C@H]2[C@@H]([C@H]1C(=O)NC(CC1CCC1)C(=O)C(N)=O)C2(C)C)C1CCCCC1)C(C)(C)C (stereo partly shown) [Example 1672] | < 75 nM | – | – |
| CCNC(=O)OC[C@@H](NC(=O)N[C@H](C(=O)N1C[C@H]2[C@@H]([C@H]1C(=O)NC(CC1CCC1)C(=O)C(N)=O)C2(C)C)C1Cc2ccccc2C1)C(C)(C)C (stereo partly shown) [Example 1025] | – | < 75 nM | Ki (Table 6, numeric Ki*): 6.7 nM |
| C#CCCC(NC(=O)[C@@H]1[C@@H]2[C@H](CN1C(=O)[C@@H](NC(=O)N[C@H](COC(=O)NCC)C(C)(C)C)C1Cc3ccccc3C1)C2(C)C)C(=O)C(=O)NCCC (stereo partly shown) [Example 1079] | – | < 75 nM | – |
| CC1(C)[C@@H]2[C@@H](C(=O)NC(CC3CC3)C(=O)C(N)=O)N(C(=O)[C@@H](NC(=O)NC3(COCc4ccccc4)CCCCCC3)C3Cc4ccccc4C3)C[C@@H]21 (stereo partly shown) [Example 1622] | > 250 nM | – | – |
| CC(C)(C)[C@H](NC(=O)NC1(CO)CCCCCC1)C(=O)N1C[C@H]2[C@@H]([C@H]1C(=O)NC(CC1CC1)C(=O)C(N)=O)C2(C)C (stereo partly shown) [Example 1626] | < 75 nM | – | – |
| COC[C@@H](NC(=O)N[C@H](C(=O)N1C[C@H]2[C@@H]([C@H]1C(=O)NC(CC1CC1)C(=O)C(N)=O)C2(C)C)C1Cc2ccccc2C1)C(C)C (stereo partly shown) [Example 1651] | < 75 nM | – | – |
| CCCC(NC(=O)[C@@H]1[C@@H]2[C@H](CN1C(=O)[C@@H](NC(=O)N[C@H](COC)C(C)(C)C)C1Cc3ccccc3C1)C2(C)C)C(=O)C(N)=O (stereo partly shown) [Example 1666] | < 75 nM | – | – |
| C=CCNC(=O)C(=O)C(CCCC)NC(=O)[C@@H]1[C@@H]2[C@H](CN1C(=O)[C@@H](NC(=O)N[C@H](COC(=O)NC(C)C)C(C)(C)C)C1Cc3ccccc3C1)C2(C)C (stereo partly shown) [Example 1045] | – | < 75 nM | – |
| C=CCNC(=O)C(=O)C(CC1CC1)NC(=O)[C@@H]1[C@@H]2[C@H](CN1C(=O)[C@@H](NC(=O)N[C@H](COC)C(C)(C)C)C1(C)CCCC1)C2(C)C (stereo partly shown) [Example 1662] | 75 to 250 nM | – | – |
| C#CCCC(NC(=O)[C@@H]1[C@@H]2[C@H](CN1C(=O)[C@@H](NC(=O)N[C@H](COC(=O)NCC(C)C)C(C)(C)C)C1(C)CCCCC1)C2(C)C)C(=O)C(=O)NCC=C (stereo partly shown) [Example 1108] | – | – | Ki (Table 1A, Ki* range class): < 75 nM; Ki (Table 6A, numeric Ki*): 9 nM |
| CN(C)C(=O)OC[C@@H](NC(=O)N[C@H](C(=O)N1C[C@H]2[C@@H]([C@H]1C(=O)NC(CC1CC1)C(=O)C(N)=O)C2(C)C)C(C)(C)C)C(C)(C)C (stereo partly shown) [Example 1052] | – | < 75 nM | – |
| CC1(C)[C@@H]2[C@@H](C(=O)NC(CC3CC3)C(=O)C(N)=O)N(C(=O)[C@@H](NC(=O)NC3(COCc4ccccc4)CCCCCC3)C3CCCCC3)C[C@@H]21 (stereo partly shown) [Example 1623] | 75 to 250 nM | – | – |
| C=CCNC(=O)C(=O)C(CCCC)NC(=O)[C@@H]1[C@@H]2[C@H](CN1C(=O)[C@@H](NC(=O)N[C@H](COC(=O)NC)C(C)(C)C)C1Cc3ccccc3C1)C2(C)C (stereo partly shown) [Example 1043] | – | < 75 nM | – |
| COC(=O)OCC1(NC(=O)N[C@H](C(=O)N2C[C@H]3[C@@H]([C@H]2C(=O)NC(CC2CCC2)C(=O)C(N)=O)C3(C)C)C(C)(C)C)CCCCC1 (stereo partly shown) [Example 1421] | – | – | Ki (Table 2, Ki* range class): < 75 nM |
| C=CCNC(=O)C(=O)C(CCC)NC(=O)[C@@H]1[C@@H]2[C@H](CN1C(=O)[C@@H](NC(=O)NC(C(C)C)[C@H](OC)c1ccccc1)C(C)(C)C)C2(C)C (stereo partly shown) [Example 1668] | 75 to 250 nM | – | – |
| CC(C)(C)[C@H](NC(=O)N[C@H](COc1ccccc1)C(C)(C)C)C(=O)N1C[C@H]2[C@@H]([C@H]1C(=O)NC(CC1CCC1)C(=O)C(N)=O)C2(C)C (stereo partly shown) [Example 1618] | 75 to 250 nM | – | – |
| CC1(C)[C@@H]2[C@@H](C(=O)NC(CC3CC3)C(=O)C(N)=O)N(C(=O)[C@@H](NC(=O)NC3(CO)CCCCCC3)C3Cc4ccccc4C3)C[C@@H]21 (stereo partly shown) [Example 1625] | 75 to 250 nM | – | – |
| C=CCNC(=O)C(=O)C(CCC)NC(=O)[C@@H]1[C@@H]2[C@H](CN1C(=O)[C@@H](NC(=O)N[C@H](COC(=O)NC(C)(C)C)C(C)C)C(C)(C)C)C2(C)C (stereo partly shown) [Example 1017] | – | < 75 nM | – |
| CC(C)(C)NC(=O)OC[C@@H](NC(=O)N[C@H](C(=O)N1C[C@H]2[C@@H]([C@H]1C(=O)NC(CC1CCC1)C(=O)C(N)=O)C2(C)C)C1Cc2ccccc2C1)C(C)(C)C (stereo partly shown) [Example 1033] | – | < 75 nM | – |
| C=CCNC(=O)C(=O)C(CCC)NC(=O)[C@@H]1[C@@H]2[C@H](CN1C(=O)[C@@H](NC(=O)N[C@H](COC(=O)NC)C(C)(C)C)C1Cc3ccccc3C1)C2(C)C (stereo partly shown) [Example 1040] | – | < 75 nM | – |
